Experimental data taken from article PMC4336329 (PLoS ONE, 2015).
About 2,200 (0.71%) of roughly 310,000 compounds showed an effect of 50% or more. The effect is printed as a negative number. This is one part of the list.

Each molecule was assayed against human ether-à-go-go-related gene (hERG) potassium channel (human, UniProt Q12809) (assay: primary screen, population patch clamp on CHO cells stably expressing hERG).
Sequence of human ether-à-go-go-related gene (hERG) potassium channel (Q12809 whole entry, looked up): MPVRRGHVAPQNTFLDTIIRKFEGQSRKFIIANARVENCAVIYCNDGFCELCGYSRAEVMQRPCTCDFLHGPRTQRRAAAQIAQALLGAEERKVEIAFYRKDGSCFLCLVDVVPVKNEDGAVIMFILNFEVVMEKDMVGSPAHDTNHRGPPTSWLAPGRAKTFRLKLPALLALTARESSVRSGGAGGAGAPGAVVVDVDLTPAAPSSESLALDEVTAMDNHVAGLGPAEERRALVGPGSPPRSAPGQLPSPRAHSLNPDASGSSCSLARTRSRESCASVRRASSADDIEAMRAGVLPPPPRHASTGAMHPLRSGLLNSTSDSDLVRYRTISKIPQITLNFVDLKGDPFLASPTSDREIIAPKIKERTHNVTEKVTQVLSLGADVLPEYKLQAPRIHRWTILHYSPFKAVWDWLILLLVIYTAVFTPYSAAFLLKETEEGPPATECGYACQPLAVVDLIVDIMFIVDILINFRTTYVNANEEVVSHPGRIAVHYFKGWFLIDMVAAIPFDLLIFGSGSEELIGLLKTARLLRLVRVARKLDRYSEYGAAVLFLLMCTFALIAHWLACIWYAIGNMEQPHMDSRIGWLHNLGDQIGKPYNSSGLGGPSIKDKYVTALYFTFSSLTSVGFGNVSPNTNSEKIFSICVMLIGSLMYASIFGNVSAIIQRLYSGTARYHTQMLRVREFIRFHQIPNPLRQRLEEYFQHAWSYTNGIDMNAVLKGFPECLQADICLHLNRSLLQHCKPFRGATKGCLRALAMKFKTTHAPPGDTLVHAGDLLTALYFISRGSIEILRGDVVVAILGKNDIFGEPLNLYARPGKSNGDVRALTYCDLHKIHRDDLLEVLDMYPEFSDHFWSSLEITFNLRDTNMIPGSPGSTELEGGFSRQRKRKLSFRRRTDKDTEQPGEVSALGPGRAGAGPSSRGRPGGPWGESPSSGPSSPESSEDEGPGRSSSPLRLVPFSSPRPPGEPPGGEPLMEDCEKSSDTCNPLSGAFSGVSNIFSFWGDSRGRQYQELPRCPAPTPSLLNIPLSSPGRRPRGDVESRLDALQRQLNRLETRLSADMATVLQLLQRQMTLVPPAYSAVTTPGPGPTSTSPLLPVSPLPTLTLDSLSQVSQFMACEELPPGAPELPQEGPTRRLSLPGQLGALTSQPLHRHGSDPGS
For `CCOC(=O)c1c(NS(=O)(=O)c2ccccc2)n(CCCOC)c2nc3ccccc3nc12`, the “hERG current change (%, negative = inhibition) at 1uM” value was 6.13%.
In the case of `CC(C)CNC(=O)CSc1ccc(Cl)cc1`, the “hERG current change (%, negative = inhibition) at 1uM” value is reported as 0.174%.
With `Cc1ccc(S(=O)(=O)N2CCN(c3cnn(C)c(=O)c3Cl)CC2)cc1` the “hERG current change (%, negative = inhibition) at 1uM” value was 3.55%.
For `COc1cccc(/C=C2\SC(N3CCCC(C)C3)=NC2=O)c1OC` (stereo not drawn), the “hERG current change (%, negative = inhibition) at 1uM” value was 9.17%.
`CC(=O)Nc1cccc(OCC(O)Cn2cnc3ccccc32)c1` (stereo not drawn) was tested, and the “hERG current change (%, negative = inhibition) at 1uM” value was 19.6%.
`O=C(NCc1ccco1)c1cnc2ccccn2c1=O` was tested, and the “hERG current change (%, negative = inhibition) at 1uM” value was 5.25%.
For `Cc1cccc(OCC(=O)N2CCN(c3nnc(-c4ccccc4)c4ccccc34)CC2)c1`, the “hERG current change (%, negative = inhibition) at 1uM” value was -3.75%.
In the case of `COc1ccc(-n2c(=O)n(Cc3ccccc3)c(=O)c3[nH]cnc32)cc1`, the “hERG current change (%, negative = inhibition) at 1uM” value is reported as 0.529%.
With `CCC(C(=O)NC1CCCC1)N(C(=O)Cn1nnc(-c2ccc(C)o2)n1)c1cnc2ccccc2c1` (stereo not drawn) the “hERG current change (%, negative = inhibition) at 1uM” value was 10.4%.
`CC(C)Cc1oc(C(=O)O)cc1CN1CCOCC1.Cl` was tested, and the “hERG current change (%, negative = inhibition) at 1uM” value was 9.34%.
For `CCSc1cc(C2C(C#N)=C(N)OC(C)=C2C(=O)OC)c(C)o1` (stereo not drawn), the “hERG current change (%, negative = inhibition) at 1uM” value was 10.4%.
With `Cc1ccc(C(=O)OCC(=O)N2CCCC2)cc1` the “hERG current change (%, negative = inhibition) at 1uM” value was 5.79%.
For `CCOc1ccc(C(F)(F)F)cc1NC(C)=O`, the “hERG current change (%, negative = inhibition) at 1uM” value was 10%.
In the case of `CCOC(=O)N1CCN(C(=O)CCn2nc(-c3ccccc3)ccc2=O)CC1`, the “hERG current change (%, negative = inhibition) at 1uM” value is reported as -7.98%.
In the case of `CCOC(=O)CN1C(=O)C(O)(c2c(C)[nH]c3ccccc23)c2ccccc21` (stereo not drawn), the “hERG current change (%, negative = inhibition) at 1uM” value is reported as 9.3%.
With `NC(=O)c1nsc(C(=O)N(c2ccc3c(c2)OCO3)C(C(=O)NCC2CCCO2)c2ccc(F)cc2)c1N` (stereo not drawn) the “hERG current change (%, negative = inhibition) at 1uM” value was 6.43%.
In the case of `CN([C@@H](Cc1ccc(OS(=O)(=O)c2cccc3cnccc23)cc1)C(=O)N1CCN(c2ccccc2)CC1)S(=O)(=O)c1cccc2cnccc12`, the “hERG current change (%, negative = inhibition) at 1uM” value is reported as -0.0105%.
`O=C(NC1CC1)c1ccc(CS(=O)c2ccccc2)o1` (stereo not drawn) was tested, and the “hERG current change (%, negative = inhibition) at 1uM” value was 1.26%.
`Cn1nnnc1SCC(=O)NCc1cc([N+](=O)[O-])ccc1O` was tested, and the “hERG current change (%, negative = inhibition) at 1uM” value was 15%.
With `CCOC(=O)C1(CC2CC2)CCN(Cc2ccc(C(=O)OC)cc2)CC1` the “hERG current change (%, negative = inhibition) at 1uM” value was -5.47%.
In the case of `CCOc1ccc(S(=O)(=O)N2Cc3ccccc3CC2C(=O)NCCCn2ccnc2)cc1` (stereo not drawn), the “hERG current change (%, negative = inhibition) at 1uM” value is reported as -3.89%.
`COc1cccc(CC(=O)N2CCC(n3nccc3NC(=O)C3CCOC3)CC2)c1` (stereo not drawn) was tested, and the “hERG current change (%, negative = inhibition) at 1uM” value was 11.9%.
`CN(CC(=O)Nc1ccccc1Cl)C(=O)COC(=O)CNC(=O)c1ccc(Br)o1` was tested, and the “hERG current change (%, negative = inhibition) at 1uM” value was -14.9%.
With `CCOc1ccc(-c2nnc(NC(=O)Cc3ccc(OC)cc3)o2)cc1` the “hERG current change (%, negative = inhibition) at 1uM” value was 13.7%.
With `Fc1cccc(Cl)c1/C=N/Nc1ccccn1` the “hERG current change (%, negative = inhibition) at 1uM” value was 8.58%.
`COc1ccc(/C=C2\CCCC3C2=NN(C(=O)c2scnc2C)C3c2ccc(OC)cc2)cc1` (stereo not drawn) was tested, and the “hERG current change (%, negative = inhibition) at 1uM” value was 7%.
`O=C(CNC(=O)c1ccccc1)Nc1ccsc1C(=O)O` was tested, and the “hERG current change (%, negative = inhibition) at 1uM” value was 9.94%.
In the case of `CCOc1ccccc1NC(=O)Nc1cccc(C(C)=O)c1`, the “hERG current change (%, negative = inhibition) at 1uM” value is reported as -0.684%.
With `COc1cc(CNCc2ccccc2)ccc1OCC(O)c1ccccc1.O=C(O)C(=O)O` (stereo not drawn) the “hERG current change (%, negative = inhibition) at 1uM” value was -4.74%.
For `CCc1ccc(OCC(=O)NNC(=O)C2CCC2)cc1`, the “hERG current change (%, negative = inhibition) at 1uM” value was -27.4%.
With `COCCN(C(=O)c1ccccc1F)c1c(N)n(Cc2ccccc2)c(=O)[nH]c1=O` the “hERG current change (%, negative = inhibition) at 1uM” value was 9.89%.
With `COc1ccc(OCC(=O)Nc2ccc(N3CCN(C(=O)c4ccccc4)CC3)c(Cl)c2)cc1` the “hERG current change (%, negative = inhibition) at 1uM” value was 9.86%.
`COc1ccccc1Oc1ccc(Oc2ccccc2OC)cc1` was tested, and the “hERG current change (%, negative = inhibition) at 1uM” value was 16.4%.
`CC(C)(C)c1ccc(S(=O)(=O)Nc2cccc(C3OCCCO3)c2)cc1` was tested, and the “hERG current change (%, negative = inhibition) at 1uM” value was 15.6%.
In the case of `CC1(C)Cc2nc3[nH]c(=S)n(-c4ccccc4)c(=O)c3cc2CO1`, the “hERG current change (%, negative = inhibition) at 1uM” value is reported as 12.4%.
In the case of `CCOCCCN1C(=O)C(O)=C(C(C)=O)C1c1cccs1` (stereo not drawn), the “hERG current change (%, negative = inhibition) at 1uM” value is reported as 14.6%.
`C=C(C)Cn1c(CCNC(=O)C(C)(C)C)nc2ccccc21` was tested, and the “hERG current change (%, negative = inhibition) at 1uM” value was 13.6%.
`O=C(Nc1ccc(S(=O)(=O)Nc2nccs2)cc1)c1cccc(N2C(=O)c3ccccc3C2=O)c1` was tested, and the “hERG current change (%, negative = inhibition) at 1uM” value was 6.07%.
With `COc1cc(C(=O)NCCOc2cc(C)cc(C)c2)cc(OC)c1OC` the “hERG current change (%, negative = inhibition) at 1uM” value was 6.83%.
For `CC(C)n1c(=S)[nH]c2ccccc21`, the “hERG current change (%, negative = inhibition) at 1uM” value was 10.4%.
With `CCCCCCCNC(=O)C1(CC2CC(c3ccc(Cl)cc3)=NO2)CCN(C(=O)Cc2ccc(F)cc2)CC1` (stereo not drawn) the “hERG current change (%, negative = inhibition) at 1uM” value was 10.1%.
In the case of `N#Cc1ccc(S(=O)(=O)N2CCN(CC(=O)Nc3ccccc3C(=O)NC3CC3)CC2)cc1`, the “hERG current change (%, negative = inhibition) at 1uM” value is reported as -67.3%.
With `Cn1nc([N+](=O)[O-])nc1Sc1ccc(Cl)cc1` the “hERG current change (%, negative = inhibition) at 1uM” value was 2.69%.
For `CCOc1ccc(S(=O)(=O)NCC(c2ccc3c(c2)OCO3)N2CCN(C)CC2)cc1` (stereo not drawn), the “hERG current change (%, negative = inhibition) at 1uM” value was -3.34%.
With `CCCN(CC(=O)Nc1ccccc1C)C(=O)CC(NC(=O)c1ccccc1)c1ccccc1` (stereo not drawn) the “hERG current change (%, negative = inhibition) at 1uM” value was -6.92%.
`CCC(=O)Nc1ccc(NC(=O)CSc2nnc(-c3ccco3)n2CC)cc1` was tested, and the “hERG current change (%, negative = inhibition) at 1uM” value was 6.83%.
`CC#CCN(Cc1ccco1)C(=O)C1CCC(=O)N(Cc2ccccc2F)C1` (stereo not drawn) was tested, and the “hERG current change (%, negative = inhibition) at 1uM” value was 4.49%.
`O=C(Nc1ccccn1)C1CCN(S(=O)(=O)c2ccc3c(c2)OCCO3)CC1` was tested, and the “hERG current change (%, negative = inhibition) at 1uM” value was 5.99%.
For `COc1ccc(CNC(=O)Nc2cccc(C)c2)cc1`, the “hERG current change (%, negative = inhibition) at 1uM” value was 14.3%.
`CCOc1cc(CNCc2ccccc2)ccc1OCc1ccc(Cl)cc1.Cl` was tested, and the “hERG current change (%, negative = inhibition) at 1uM” value was 6%.
In the case of `O=C(NCC1CCCO1)c1cc([N+](=O)[O-])ccc1Cl` (stereo not drawn), the “hERG current change (%, negative = inhibition) at 1uM” value is reported as 8.6%.
`NC(=O)C1CCN(C(=O)C(=O)c2cn(CC(=O)N3CCCC3)c3ccccc23)CC1` was tested, and the “hERG current change (%, negative = inhibition) at 1uM” value was 16.1%.
For `O=C(CSc1ccncc1)Nc1ccc2ccccc2c1`, the “hERG current change (%, negative = inhibition) at 1uM” value was 12.7%.
`COc1ccc(Cl)cc1NC(=O)CN(C)C(=O)c1cn(-c2ccccc2)nc1-c1cccnc1` was tested, and the “hERG current change (%, negative = inhibition) at 1uM” value was -19.4%.
